Reference: PMC4336329 (PLoS ONE, 2015)
Among all 310,000 compounds or so, about 2,200 (0.71%) showed an effect of 50% or more. The effect is printed as a negative number. The list shows a part of the results.

The compounds below were run against human ether-à-go-go-related gene (hERG) potassium channel (human, UniProt Q12809) (assay: primary screen, population patch clamp on CHO cells stably expressing hERG).
human ether-à-go-go-related gene (hERG) potassium channel, sequence (Q12809 whole entry, looked up): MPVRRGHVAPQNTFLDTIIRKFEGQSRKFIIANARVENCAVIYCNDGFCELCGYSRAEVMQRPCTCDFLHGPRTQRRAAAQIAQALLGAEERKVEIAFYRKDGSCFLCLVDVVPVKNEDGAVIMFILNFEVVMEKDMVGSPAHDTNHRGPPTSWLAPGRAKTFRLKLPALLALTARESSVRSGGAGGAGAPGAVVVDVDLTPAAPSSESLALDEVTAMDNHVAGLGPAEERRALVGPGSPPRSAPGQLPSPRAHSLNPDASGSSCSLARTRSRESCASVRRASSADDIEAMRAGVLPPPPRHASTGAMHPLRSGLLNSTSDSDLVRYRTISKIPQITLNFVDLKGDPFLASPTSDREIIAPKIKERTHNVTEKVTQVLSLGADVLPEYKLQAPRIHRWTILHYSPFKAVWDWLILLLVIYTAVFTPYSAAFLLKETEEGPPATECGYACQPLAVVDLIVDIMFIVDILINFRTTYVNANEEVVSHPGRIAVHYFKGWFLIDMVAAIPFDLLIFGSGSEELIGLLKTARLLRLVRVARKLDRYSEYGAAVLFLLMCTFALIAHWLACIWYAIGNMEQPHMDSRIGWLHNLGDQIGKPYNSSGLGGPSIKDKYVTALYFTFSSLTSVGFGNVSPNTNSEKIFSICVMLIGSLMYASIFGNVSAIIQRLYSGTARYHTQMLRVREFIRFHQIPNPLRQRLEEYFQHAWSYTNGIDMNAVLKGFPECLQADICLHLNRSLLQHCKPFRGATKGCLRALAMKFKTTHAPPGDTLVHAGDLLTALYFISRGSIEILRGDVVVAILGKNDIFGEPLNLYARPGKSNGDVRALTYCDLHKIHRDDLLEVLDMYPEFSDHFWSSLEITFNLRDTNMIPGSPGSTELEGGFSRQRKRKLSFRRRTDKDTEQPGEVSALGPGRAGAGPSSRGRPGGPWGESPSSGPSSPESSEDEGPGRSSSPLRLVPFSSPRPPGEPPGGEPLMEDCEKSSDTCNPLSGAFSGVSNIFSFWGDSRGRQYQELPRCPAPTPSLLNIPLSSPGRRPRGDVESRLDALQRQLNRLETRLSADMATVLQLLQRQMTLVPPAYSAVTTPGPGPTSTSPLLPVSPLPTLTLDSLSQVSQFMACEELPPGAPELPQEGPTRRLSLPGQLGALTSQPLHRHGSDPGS

| Structure (SMILES) | hERG current change (%, negative = inhibition) at 1uM [%] |
| --- | --- |
| CC(=O)Oc1cc2c(C(C)=O)coc2c2ccccc12 | 2.24 |
| Cc1ccc2nc(N3C(=O)C(O)=C(C(=O)c4ccco4)C3c3cccs3)sc2c1.O=C(O)C(=O)O (centres unmarked) | 3.52 |
| O=C(CCc1ccccc1)NNC(=O)COc1ccc(Br)cc1 | 11 |
| CCCC1Oc2ccccc2C(=O)N(CC(=O)c2ccc3c(c2)OCCO3)C1=O (centres unmarked) | 20.8 |
| O=C(O)/C=C/c1cn(-c2ccccc2)nc1-c1cccc([N+](=O)[O-])c1 | 11.9 |
| CCOC(=O)C1=C(N)OC2=C(C(=O)CC(C)(C)C2)C1c1cccs1 (centres unmarked) | 7.83 |
| CC(Nc1nc(N2CCCC2)nc2ccccc12)c1ccccc1 (centres unmarked) | -84.6 |
| COc1ccc(CN2CCN(C(=O)C3CCN(S(=O)(=O)c4cccs4)CC3)CC2)c(OC)c1OC | 10.1 |
| CC(C)N(Cc1cnn(C)c1)C(=O)c1ccc(OC2CCN(Cc3ccccn3)CC2)cc1 | 15.1 |
| COC(=O)c1ccc(CSc2nc3ccc(C)cc3[nH]2)o1 | 8.54 |
| CCOC(=O)c1c(-c2cccs2)csc1NC(C)=O | 9.04 |
| O=C(c1cccc(-c2ccccc2)c1)N1CC[C@@H](N2CCC(O)CC2)[C@H](O)C1 | 6.95 |
| Cc1ccccc1OCC(=O)NCC1CCCO1 (centres unmarked) | 10.3 |
| N#Cc1c(F)cccc1N1CCC(C#N)CC1 | 12.9 |
| Cc1ccc(CC(=O)N2CCN(c3cccc(C(F)(F)F)c3)CC2)cc1 | 3.13 |
| CC1=C(C(=O)NC2CCCc3c2cnn3-c2ccc(F)cc2F)OCCO1 (centres unmarked) | 16 |
| Cc1cccc2c3c([nH]c12)C(=O)CC(C)(C)S3 | 13 |
| NC(=O)C1CCN(C(=O)c2ccc(C(F)(F)F)cc2)CC1 | 5.61 |
| O=C(CN1CCOc2ccccc21)N1CCC(Cc2ccccc2)CC1 | 7.19 |

| Structure (SMILES) | hERG current change (%, negative = inhibition) at 1uM [%] |
| --- | --- |
| COc1ccc(CN2CCNC(=O)C2CC(=O)NC2CCCCC2)c(OC)c1 (centres unmarked) | 7.83 |
| CCCNC(=O)/C=C/c1ccc(S(=O)(=O)Nc2ccccc2OC)cc1 | 5.44 |
| COC(=O)CNC(=O)COc1ccccc1 | 7.31 |
| CN1CCN(c2ccc(S(=O)(=O)N3CCCCC3)cc2NC(=O)/C=C/c2ccc(Cl)c([N+](=O)[O-])c2)CC1 | 6.68 |
| CC(=O)c1c(C(C)=O)c(C)n(-c2nc(-c3ccc(Br)cc3)c(C)s2)c1C | 14 |
| S=c1[nH]nc(-c2cc3c(s2)-c2ccccc2CC3)o1 | 14.5 |
| CCOC(=O)N1CCC(NC(=O)c2cnc3n(c2=O)CCS3)CC1 | 14 |
| CCC(C)(C(=O)NC1CCCCC1)N(Cc1cccs1)C(=O)CC1NC(=O)NC1=O (centres unmarked) | 5.57 |
| COc1ccccc1N1CCN(C(=O)C(C)N(c2ccc(C)c(C)c2)S(C)(=O)=O)CC1 (centres unmarked) | 4.93 |
| Cc1cc(OCC(=O)N2CCC[C@@H]2C(=O)O)c2c(C)c(C)c(=O)oc2c1 | 13.2 |
| N#Cc1ccc(C(=O)OCC(=O)NC(=O)NC2CCCCC2)cc1 | 12.3 |
| Cc1cc(NC(=O)/C=C/C(=O)N(CC(=O)NC2CCCC2)c2cccc3ccccc23)no1 | 4.93 |
| COc1cc(OC)c(NC(=O)CCNC(=O)Cn2ccc3ccccc3c2=O)cc1Cl | 12.3 |
| CC(C)(C)n1nc(-c2ccc(Cl)cc2)c2c(N)ncnc21 | 6.91 |
| CCC(=O)Nc1ccccc1C(=O)OCC(=O)c1ccccc1 | 4.17 |
| O=S1(=O)CCC(NS(=O)(=O)/C=C/c2ccccc2)C1 (centres unmarked) | -3.6 |
| CCC(=O)Oc1c(S(=O)(=O)c2ccc(C)cc2)c(C)nn1C(C)(C)C | 5.44 |
| CCOC(=O)c1cc2n(c1/N=C/N(C)C)-c1ccccc1C2=O | 10.2 |
| COc1ccc(-c2cc(C)no2)cc1S(=O)(=O)N1CCOc2ccc(Cl)cc21 | 8.79 |

| Structure (SMILES) | hERG current change (%, negative = inhibition) at 1uM [%] |
| --- | --- |
| O=C(NNC(=O)c1cc2cc(Br)ccc2oc1=O)c1ccc(O)cc1O | 9.88 |
| CN1C(=O)C(=CN2CCN(C(=O)c3ccco3)CC2)C(=O)N(C)C1=S | 11.1 |
| Cc1ccc(C(=O)NCCOc2ccc(Cl)cc2)cc1 | -1.72 |
| Cn1c(CNC(=O)CNS(=O)(=O)c2ccccc2)cc(=O)n(C)c1=O | 17.2 |
| Cc1ccc(-c2nnc(-c3cccc(Br)c3)o2)cc1 | 8.38 |
| CCOC(=O)c1ccc(NS(=O)(=O)c2cc3c4c(c2)CCN4C(=O)CC3)cc1 | -2.78 |
| O=C1COc2ccc(S(=O)(=O)CCC(=O)NC3CCCCC3)cc2N1 | 11 |
| Br.CC(=O)c1sc(Nc2ccccn2)nc1C | 9.58 |
| NS(=O)(=O)c1ccc(N=Nc2c(O)[nH]c3ccc(Br)cc23)cc1 | 14.6 |
| CCCNC(=O)COC(=O)c1ccc(Cl)c(S(=O)(=O)N2CCCC2)c1 | 2.33 |
| CCn1ccnc1[C@@H]1C[C@H]2CN(Cc3ccccc3OC)C(=O)[C@]23CCCN13 | 19.8 |
| Cc1cc([N+](=O)[O-])ccc1NC(=O)CSc1nccc(=O)[nH]1 | 9.48 |
| Cc1ccc(S(=O)(=O)Nc2ccc3c(c2)nc(CCN2CCN(c4ccccn4)CC2)n3C)cc1 | -80.7 |
| CSc1ccc(CN(C)CC(=O)NCc2ccc(F)cc2)cc1 | -19.3 |
| COc1cc(C(=O)NC2=C(C#N)CCC2)cc(OC)c1OC | 13.8 |
| CCOc1ccc(N2C(=O)CC(N3CCN(c4ccccc4F)CC3)C2=O)cc1 (centres unmarked) | 7.52 |
| Cc1ccc(NC(=O)CCc2nnc3ccc(NCc4ccco4)nn23)cc1F | -17.2 |
| CCS(=O)(=O)c1nc(S(=O)(=O)c2ccc(C)cc2)c(N2CCC(O)CC2)s1 | 4.52 |
